Where a name gives a salt, the structure may show the parent alone. ± gives the standard deviation of the averaged measurements. The list shows a part of the results.
Key:
[1] = tested on: murine small intestinal organoids (ENR+CD Paneth differentiation); assay: cellular ATP (CellTiter-Glo 3D) relative to plate median (log10 fold change); higher = more viable cells; settings: 6 d
[2] = tested on: murine small intestinal organoids (ENR+CD Paneth differentiation); assay: carbachol-stimulated secreted lysozyme activity relative to plate median (log10 fold change); higher = more Paneth cell lysozyme secretion; settings: 6 d, carbachol 10 µM
[3] = tested on: murine small intestinal organoids (ENR+CD Paneth differentiation); assay: basal (non-stimulated) secreted lysozyme activity relative to plate median (log10 fold change); higher = more Paneth cell lysozyme secretion; settings: 6 d
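Wherever basal (non-stimulated) secreted lysozyme activity relative to plate median is given: ISC-enriched organoid precursors grown as 2.5D pseudo-monolayer on Matrigel, compound given on day 0 and day 3, plate values LOESS-normalized before median fold change, three murine donors.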
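Wherever cellular ATP (CellTiter-Glo 3D) relative to plate median is given: 2.5D pseudo-monolayer culture of ISC-enriched organoids partly embedded atop Matrigel, compound added on day 0 and again on day 3, per-plate LOESS correction before median fold change.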

Structure (SMILES) | cellular ATP (log10) ([1]; 0.08 µM) | cellular ATP (log10) ([1]; 0.4 µM) | cellular ATP (log10) ([1]; 2 µM) | cellular ATP (log10) ([1]; 10 µM) | carbachol-stimulated secreted lysozyme activity (log10) ([2]; 0.08 µM) | carbachol-stimulated secreted lysozyme activity (log10) ([2]; 0.4 µM) | carbachol-stimulated secreted lysozyme activity (log10) ([2]; 2 µM) | carbachol-stimulated secreted lysozyme activity (log10) ([2]; 10 µM) | basal (log10) ([3]; 0.08 µM) | basal (log10) ([3]; 0.4 µM) | basal (log10) ([3]; 2 µM) | basal (log10) ([3]; 10 µM)
CCOC(=O)CCNc1cc(N2CCc3ccccc3CC2)nc(-c2ccccn2)n1 | 0.124 ± 0.26 | 0.0994 ± 0.27 | 0.00235 ± 0.3 | 0.233 ± 0.097 | 0.118 ± 0.076 | 0.178 ± 0.19 | 0.0654 ± 0.1 | 0.0073 ± 0.21 | 0.0583 ± 0.067 | 0.0497 ± 0.13 | 0.0176 ± 0.11 | -0.000637 ± 0.081
COCCCC/C(=N\OCCN)c1ccc(C(F)(F)F)cc1 [Fluvoxamine maleate] | 0.115 ± 0.24 | 0.254 ± 0.25 | 0.211 ± 0.18 | 0.138 ± 0.19 | 0.13 ± 0.1 | 0.155 ± 0.12 | 0.045 ± 0.04 | -0.0208 ± 0.098 | 0.0738 ± 0.049 | 0.0869 ± 0.054 | 0.0893 ± 0.12 | -0.027 ± 0.11
CCCCCCCCc1ccc(CCC(N)(CO)CO)cc1 [Fingolimod (FTY720) HCl] | -0.08 ± 0.2 | 0.103 ± 0.094 | -0.468 ± 0.63 | -1.3 ± 0.47 | 0.00885 ± 0.025 | 0.108 ± 0.2 | -0.0086 ± 0.051 | -0.431 ± 0.14 | -0.0541 ± 0.057 | 0.0707 ± 0.26 | 0.0214 ± 0.12 | -0.225 ± 0.11
CCN(c1cc(-c2ccc(CN3CCOCC3)cc2)cc(C(=O)NCc2c(C)cc(C)[nH]c2=O)c1C)C1CCOCC1 | 0.045 ± 0.24 | 0.0747 ± 0.092 | -0.0681 ± 0.18 | 0.336 ± 0.65 | 0.0578 ± 0.1 | -0.0264 ± 0.075 | 0.0409 ± 0.054 | -0.166 ± 0.067 | 0.0124 ± 0.088 | -0.0233 ± 0.034 | 0.015 ± 0.099 | 0.0618 ± 0.31
Cc1cc(OCCCS(C)(=O)=O)cc(C)c1-c1cccc(COc2ccc3c(c2)OC[C@H]3CC(=O)O)c1 | 0.234 ± 0.27 | 0.0366 ± 0.41 | 0.11 ± 0.21 | -0.135 ± 0.45 | 0.263 ± 0.011 | 0.019 ± 0.047 | 0.0107 ± 0.13 | -0.189 ± 0.17 | 0.0917 ± 0.09 | 0.0171 ± 0.024 | -0.0352 ± 0.087 | -0.14 ± 0.12
CC1=C(C(=O)OC2CCCCC2)C(c2ccc([N+](=O)[O-])cc2)C2=C(CC(C)(C)CC2=O)N1 (stereo not given) | 0.0892 ± 0.23 | 0.0945 ± 0.24 | 0.0761 ± 0.21 | -0.343 ± 0.63 | 0.144 ± 0.02 | 0.00359 ± 0.0067 | -0.107 ± 0.14 | -0.235 ± 0.1 | 0.0505 ± 0.11 | -0.0264 ± 0.011 | -0.0535 ± 0.044 | -0.14 ± 0.064
CCOC(=O)C1=C(C)NC(C)=C(C(=O)OC)C1c1cccc(Cl)c1Cl (stereo not given) [Felodipine] | -0.0783 ± 0.14 | -0.319 ± 0.39 | 0.0106 ± 0.024 | 0.0325 ± 0.087 | -0.0559 ± 0.024 | -0.0928 ± 0.01 | -0.0328 ± 0.041 | -0.101 ± 0.13 | 0.00114 ± 0.091 | -0.0327 ± 0.05 | 0.002 ± 0.063 | -0.056 ± 0.1
CS(=O)(=O)N1CCN(Cc2cc3nc(-c4cccc5[nH]ncc45)nc(N4CCOCC4)c3s2)CC1 | 0.283 ± 0.11 | 0.0224 ± 0.16 | -0.197 ± 0.26 | -1.22 ± 0.54 | 0.00985 ± 0.086 | -0.0791 ± 0.069 | -0.292 ± 0.015 | -0.317 ± 0.017 | 0.00801 ± 0.039 | -0.0128 ± 0.032 | -0.128 ± 0.056 | -0.156 ± 0.083
c1ccc(CNc2nc(NCc3ccccc3)c3ccccc3n2)cc1 | 0.119 ± 0.26 | -0.0129 ± 0.13 | 0.00434 ± 0.12 | -1.13 ± 0.74 | 0.0313 ± 0.15 | 0.25 ± 0.26 | -0.103 ± 0.072 | -0.448 ± 0.17 | 0.0969 ± 0.13 | 0.064 ± 0.073 | -0.0475 ± 0.043 | -0.296 ± 0.078
COc1ccc(CC(C)NCC(O)c2ccc(O)c(NC=O)c2)cc1 (stereo not given) [Formoterol Hemifumarate] | 0.294 ± 0.2 | 0.265 ± 0.13 | 0.242 ± 0.36 | 0.253 ± 0.2 | 0.208 ± 0.011 | 0.261 ± 0.12 | 0.0703 ± 0.027 | -0.026 ± 0.13 | 0.145 ± 0.034 | 0.0733 ± 0.074 | 0.0482 ± 0.037 | 0.0131 ± 0.12
O=C(Nc1cccc(C(F)(F)F)c1)Nc1cc(S(=O)(=O)NC2CC2)ccc1-c1ccsc1 | 0.281 ± 0.15 | 0.231 ± 0.21 | 0.298 ± 0.14 | 0.107 ± 0.036 | 0.0428 ± 0.0069 | 0.114 ± 0.037 | -0.0173 ± 0.13 | -0.0776 ± 0.047 | 0.0686 ± 0.058 | 0.0308 ± 0.049 | 0.0429 ± 0.068 | -0.0901 ± 0.025
CC(C)C[C@H](NC(=O)[C@H]1O[C@@H]1C(=O)O)C(=O)NCCCCN=C(N)N | 0.355 ± 0.26 | 0.0454 ± 0.073 | 0.171 ± 0.29 | 0.225 ± 0.41 | 0.128 ± 0.034 | 0.0735 ± 0.13 | 0.00204 ± 0.0023 | 0.0853 ± 0.093 | 0.15 ± 0.047 | 0.015 ± 0.07 | 0.0224 ± 0.12 | 0.0374 ± 0.045
Cc1nnc(C(C)C)n1C1C[C@H]2CC[C@@H](C1)N2CC[C@H](NC(=O)C1CCC(F)(F)CC1)c1ccccc1 (stereo in doubt) [Maraviroc] | -0.0841 ± 0.086 | 0.0789 ± 0.26 | -0.0092 ± 0.12 | 0.139 ± 0.35 | 0.102 ± 0.14 | 0.27 ± 0.17 | 0.0294 ± 0.15 | 0.0936 ± 0.15 | 0.0472 ± 0.11 | 0.0411 ± 0.048 | 0.0309 ± 0.079 | 0.0872 ± 0.1
CCCC(C)NC(=O)c1ccc(Cl)c(Cl)c1 (stereo not given) | -0.0587 ± 0.046 | -0.0714 ± 0.2 | -0.0591 ± 0.13 | -0.0577 ± 0.14 | 0.0192 ± 0.057 | 0.186 ± 0.28 | -0.005 ± 0.06 | -0.0578 ± 0.052 | 0.00813 ± 0.013 | -0.0282 ± 0.028 | 0.0184 ± 0.015 | -0.0654 ± 0.052
CS(=O)(=O)c1ccc(-c2cnc(N)c(C(=O)Nc3ccccc3)n2)cc1 | 0.061 ± 0.59 | 0.119 ± 0.17 | -0.0831 ± 0.24 | -1.02 ± 0.084 | -0.201 ± 0.44 | 0.197 ± 0.11 | 0.0372 ± 0.028 | -0.464 ± 0.07 | -0.0105 ± 0.29 | 0.0737 ± 0.018 | 0.115 ± 0.15 | -0.275 ± 0.081
CCc1c2c(nc3ccc(OC(=O)N4CCC(N5CCCCC5)CC4)cc13)-c1cc3c(c(=O)n1C2)COC(=O)[C@]3(O)CC [Irinotecan HCl Trihydrate] | -0.0832 ± 0.052 | -0.205 ± 0.1 | -0.317 ± 0.11 | -0.588 ± 0.15 | -0.0465 ± 0.0011 | -0.166 ± 0.19 | -0.303 ± 0.15 | -0.428 ± 0.046 | -0.0186 ± 0.029 | -0.0925 ± 0.046 | -0.221 ± 0.059 | -0.272 ± 0.075
Cc1ccccc1C(=O)Nc1ccc(C(=O)N2CCCC(N(C)C)c3ccccc32)cc1 (stereo not given) [Mozavaptan] | 0.32 ± 0.44 | 0.235 ± 0.39 | 0.108 ± 0.23 | -0.336 ± 0.25 | -0.0471 ± 0.076 | 0.203 ± 0.28 | 0.104 ± 0.052 | -0.322 ± 0.07 | 0.0671 ± 0.17 | -0.0268 ± 0.073 | 0.0338 ± 0.022 | -0.201 ± 0.071
O=C(Nc1ccncc1)c1cc([N+](=O)[O-])ccc1Cl | -0.377 ± 0.93 | -0.0742 ± 0.21 | 0.0406 ± 0.065 | -0.365 ± 0.082 | -0.251 ± 0.23 | -0.0157 ± 0.044 | 0.0304 ± 0.015 | -0.183 ± 0.38 | -0.0876 ± 0.2 | 0.00508 ± 0.021 | 0.0421 ± 0.042 | -0.0715 ± 0.21
COc1ccc(-c2cnc3c(-c4cccc5ncccc45)cnn3c2)cc1 | 0.184 ± 0.23 | 0.209 ± 0.21 | 0.137 ± 0.17 | -0.169 ± 0.39 | 0.0428 ± 0.028 | 0.0822 ± 0.057 | 0.11 ± 0.056 | -0.222 ± 0.098 | 0.124 ± 0.038 | 0.132 ± 0.03 | 0.0689 ± 0.077 | -0.124 ± 0.13
CNCc1ccc(-c2cc(-c3nc(-c4ccc(S(=O)(=O)C(C)C)cc4)cnc3N)on2)cc1 | -0.802 ± 1.1 | -0.24 ± 0.62 | -0.244 ± 0.48 | -1.08 ± 1.3 | -0.137 ± 0.39 | -0.031 ± 0.26 | -0.0805 ± 0.42 | -0.247 ± 0.33 | -0.0631 ± 0.19 | -0.013 ± 0.1 | -0.0604 ± 0.21 | -0.137 ± 0.15
CN1CCN(c2nc(C3=C(c4c[nH]c5ccccc45)C(=O)NC3=O)c3ccccc3n2)CC1 [Sotrastaurin] | 0.086 ± 0.1 | -0.106 ± 0.16 | -0.247 ± 0.28 | -0.25 ± 0.4 | 0.0254 ± 0.13 | 0.0637 ± 0.19 | 0.0022 ± 0.17 | -0.0414 ± 0.3 | 0.0209 ± 0.091 | -0.00646 ± 0.13 | -0.0385 ± 0.092 | -0.0793 ± 0.15
O=C(O)Cc1cccc(OCCCN(Cc2cccc(C(F)(F)F)c2Cl)CC(c2ccccc2)c2ccccc2)c1 | 0.138 ± 0.06 | 0.201 ± 0.14 | 0.229 ± 0.18 | -0.0777 ± 0.2 | 0.124 ± 0.23 | 0.0935 ± 0.21 | 0.237 ± 0.047 | -0.0136 ± 0.086 | 0.0593 ± 0.14 | 0.00154 ± 0.081 | 0.0773 ± 0.072 | -0.00914 ± 0.083
CCOC(=O)C1=C(COCCN)NC(C)=C(C(=O)OC)C1c1ccccc1Cl (stereo not given) [Amlodipine] | -0.351 ± 0.38 | -0.363 ± 0.71 | -0.372 ± 0.38 | -0.421 ± 0.47 | 0.000466 ± 0.089 | 0.063 ± 0.033 | -0.0884 ± 0.058 | -0.171 ± 0.031 | 0.0262 ± 0.13 | 0.0242 ± 0.084 | -0.0652 ± 0.035 | -0.135 ± 0.015
O=C1c2ccccc2-c2n[nH]c3cccc1c23 | 0.163 ± 0.22 | 0.189 ± 0.3 | 0.168 ± 0.22 | 0.0566 ± 0.15 | 0.189 ± 0.091 | 0.0815 ± 0.16 | 0.091 ± 0.031 | 0.055 ± 0.15 | 0.11 ± 0.054 | 0.00147 ± 0.049 | 0.115 ± 0.22 | 0.0136 ± 0.038
Cc1nnc(C(=O)NC(C)(C)c2nc(C(=O)NCc3ccc(F)cc3)c(O)c(=O)n2C)o1 [Raltegravir (MK-0518)] | 0.181 ± 0.23 | 0.128 ± 0.1 | 0.223 ± 0.26 | 0.0503 ± 0.47 | 0.172 ± 0.024 | -0.0109 ± 0.087 | 0.079 ± 0.034 | 0.081 ± 0.083 | 0.0886 ± 0.061 | 0.0476 ± 0.081 | 0.0417 ± 0.062 | 0.0172 ± 0.095

From the supplement of paper PMC9046079
